Measured values: PubChem BioAssay AID1477 (National Center for Advancing Translational Sciences (NCATS), 2009)
Fewer than 10 of roughly 230,000 compounds were called active. The shares of active, inactive and inconclusive entries below differ from those in the screen. Calls come from the whole dose curve; as a rule, active = well fitted curve in the direction sought with a large enough effect; inconclusive = small, poorly fitted or top-dose-only effect, or effect the other way, or another doubt; inactive = no such curve, though single readings can be large or run the other way. No potency is given beside an inconclusive call; the fits are too rough. Peptide text beside a SMILES is read from it.

Each compound was assayed against Runt-related transcription factor 1 (Homo sapiens) + Core-binding factor subunit beta (Homo sapiens) (UniProt Q01196+Q13951) (assay: qHTS Assay for Compounds Blocking the Interaction Between CBF-beta and RUNX1 for the Treatment of Acute Myeloid Leukemia). Conditions: AlphaScreen CBFb-His/RUNX1-biotin binding, biochemical; activity, negative = inhibition: at 59.8 µM (top of the series) unless noted.
UniProt Q01196, sequence (Q01196 whole entry, looked up): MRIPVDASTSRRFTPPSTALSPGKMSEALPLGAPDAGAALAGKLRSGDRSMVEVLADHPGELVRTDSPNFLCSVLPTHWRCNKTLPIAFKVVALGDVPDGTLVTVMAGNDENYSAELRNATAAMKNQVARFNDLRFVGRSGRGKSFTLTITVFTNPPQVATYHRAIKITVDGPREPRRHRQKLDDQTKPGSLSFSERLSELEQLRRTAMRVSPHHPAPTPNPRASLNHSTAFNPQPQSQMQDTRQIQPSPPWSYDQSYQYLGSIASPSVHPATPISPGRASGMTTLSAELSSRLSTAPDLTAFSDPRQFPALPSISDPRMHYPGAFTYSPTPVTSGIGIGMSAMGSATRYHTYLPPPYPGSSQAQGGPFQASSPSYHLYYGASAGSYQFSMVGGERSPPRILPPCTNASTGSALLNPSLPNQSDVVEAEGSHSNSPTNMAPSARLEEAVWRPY
UniProt Q01196, sequence (Q13951 whole entry, looked up): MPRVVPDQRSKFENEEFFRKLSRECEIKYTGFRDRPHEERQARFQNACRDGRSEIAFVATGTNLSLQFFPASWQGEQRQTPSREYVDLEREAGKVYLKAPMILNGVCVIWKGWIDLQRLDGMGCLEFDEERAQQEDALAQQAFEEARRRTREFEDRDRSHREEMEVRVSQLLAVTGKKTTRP
Outline: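 CBF-beta (His) and RUNX1 (biotin), 30 nM each; 20 min preassociation; + compound, 15 min; + beads 50 ng each (Ni, streptavidin), 90 min; RT; AlphaScreen read.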
Throughout, for activity, negative = inhibition: % of control where 0% means no effect.

Compound | activity, negative = inhibition | Potency
COc1cccc(OCCCCN2CCCCC2)c1 | inactive: 12.3% | 
CC(C)COC[C@H](CN(Cc1ccccc1)c1ccccc1)N1CCCC1 | inactive: -3.91% [at 21.7 µM] | 
O=C(OCc1nnc(-c2ccccc2)o1)C12CC3CC(CC(Br)(C3)C1)C2 |  | inconclusive [activator, single point]
OCc1ncccc1O |  | inconclusive [activator, partial curve]
NS(=O)(=O)c1ccc(N/N=C/c2ccc[nH]2)c([N+](=O)[O-])c1 |  | inconclusive [inhibitor, single point]
COc1ccc(N2C=C3C(=O)C(C)(OC(=O)CCc4ccccc4)C(=O)C=C3C=C2c2ccc(C#N)cc2)cc1 (stereo not drawn) |  | inconclusive [inhibitor, single point]
O=C(NCCc1c[nH]c2ccccc12)C1CCN(S(=O)(=O)c2ccccc2F)CC1 | inactive: -6.04% | 
NC(=O)c1ccc2nc(-c3ccc(Oc4ccc(Cl)cc4)cc3)[nH]c2c1 |  | inconclusive [inhibitor, single point]
Cc1ccc(/C=C/c2ccc(=O)n(Cc3ccc(F)cc3)n2)cc1 |  | inconclusive [activator, single point]
CC1C/C(=C/c2cccn2C)C(=O)/C(=C/c2cccn2C)C1 (stereo not drawn) |  | inconclusive [inhibitor, partial curve]
COc1ccc(OCc2nnc3n2N=C(c2ccc(C)cc2)CS3)cc1 | inactive: -8.69% | 
COc1cc(NC(=O)CSc2nnnn2-c2ccccc2)cc(OC)c1OC | inactive: 5.65% | 
CC(C)c1cccc2c([Si](C)(C)C)c3c(nc12)-c1cccc(=O)n1C3 |  | inconclusive [activator, partial curve]
CC1(C)OC(=O)C(=CNc2ccccc2F)C(=O)O1 | inactive: 2.43% | 
O=[N+]([O-])c1ccccc1-c1ccccc1 | inactive: 23.7% [at 21.7 µM] | 
COc1ccccc1C(C[N+](=O)[O-])c1c[nH]c2ccccc12 (stereo not drawn) | inactive: 0.557% | 
O=C(Nc1ccccc1Cl)O/N=C(/c1ccccc1)c1ccccn1 |  | inconclusive [inhibitor, partial curve]
O=[N+]([O-])c1cc2c(cc1/C=N/Nc1nc(N3CCCC3)nc(N3CCCC3)n1)OCO2 |  | inconclusive [activator, single point]
Cc1ncc2c(c1OC(=O)c1ccccc1)COC(C)(C)OC2 | inactive: -6% | 
COc1ccc(C2c3c(ncn(Cc4ccco4)c3=N)Oc3ccc4ccccc4c32)cc1 (stereo not drawn) | inactive: -0.76% | 
COC(=O)NNC(=O)C12CC3CC(CC(C3)C1)C2 |  | inconclusive [activator, single point]
N#Cc1nc(Cc2ccccc2)oc1N1CCN(c2ccccc2)CC1 |  | inconclusive [inhibitor, partial curve]
O=C(C1CC(=O)N(C2CCCCCCC2)C1)N1CCC2(CC1)OCCO2 (stereo not drawn) | inactive: 6.51% | 
COc1ccc2c(c1)/C(=C/c1cnc[nH]1)C(=O)N2 |  | inconclusive [inhibitor, single point]
CN(C)C(=O)c1ccc(NC(=O)c2ccccc2Sc2ccccc2C#N)cc1 | inactive: 0.37% | 

Compound | activity, negative = inhibition | Potency
O=C(O)CNC(=O)c1ccccc1 |  | inconclusive [activator, full curve]
Cc1ccc(Nc2ncnc3ccccc23)cc1 | inactive: 9.09% | 
CC(C)N=c1scc(-c2cccs2)n1/N=C/c1ccc(O)c(O)c1O |  | inconclusive [inhibitor, partial curve]
O=C(c1ccccc1[N+](=O)[O-])N1CCc2ccccc2C1 | inactive: -0.512% | 
Nc1ccc(-c2ccc(N)c([N+](=O)[O-])c2)cc1[N+](=O)[O-] |  | inconclusive [activator, partial curve]
CN1/C(=C\C=O)C(C)(C)c2ccccc21 | inactive: 8.25% | 
COc1cccc(/C=C(/C(=O)OCC(=O)NC2CCCCCCC2)c2ccccc2)c1 |  | inconclusive [activator, single point]
Cc1cccc(OCCn2cc(/C=N/NC(=O)c3ccncc3)c3ccccc32)c1 |  | inconclusive [inhibitor, single point]
Cc1ccccc1-c1nnc(SCc2ccc(F)cc2)o1 |  | inconclusive [activator, partial curve]
CC1(C)C(=O)CC[C@]2(C)C3C(=O)C=C4[C@H]5C[C@@](C)(C(=O)O)CC[C@]5(C)CC[C@]4(C)[C@]3(C)CC[C@@H]12 (stereo partly drawn) |  | inconclusive [inhibitor, single point]
c1ccc(CC2CCN(C3=Nc4cccc5cccc3c45)CC2)cc1 |  | inconclusive [inhibitor, single point]
Cc1cc(C)cc(OCC(=O)O/N=C(\N)c2ccccc2Cl)c1 |  | inconclusive [activator, partial curve]
CCOC(=O)c1ccc(CN(Cc2ccccc2)S(=O)(=O)c2cccc([N+](=O)[O-])c2)cc1 |  | inconclusive [inhibitor, partial curve, poor fit]
CCCCn1c(O)c(/C=N/NC(=O)c2ccncc2)c(=O)[nH]c1=S |  | inconclusive [inhibitor, single point]
O=C(/C=C/c1ccc(O)cc1)c1ccc(NC2=C(N3CCCCC3)C(=O)c3ccccc3C2=O)cc1 | inactive: -15% | 
NC(=O)C1(N2CCCCC2)CCN(C(=O)Nc2ccccc2C(F)(F)F)CC1 |  | inconclusive [inhibitor, single point]
CN(CCOC(=O)/C=C/c1ccccc1)C(C)(C)C |  | inconclusive [activator, single point]
COc1ccc(N(CC(=O)Nc2c(C)n(C)n(-c3ccccc3)c2=O)S(=O)(=O)c2ccccc2)cc1OC |  | inconclusive [activator, single point]
CC1(C)CC(=O)C(C=Nc2ccccc2C(=O)O)=C(O)C1 | inactive: 9.52% | 
COc1cccc(CS(=O)(=O)c2ccccc2)c1 | inactive: -14.4% | 
CCCCn1c(N)c(C(=O)NCc2cccs2)c2nc3ccccc3nc21 |  | inconclusive [activator, partial curve]
O=[N+]([O-])c1cc(C(F)(F)F)cc([N+](=O)[O-])c1NCCCNc1ccc([N+](=O)[O-])c2cccnc12 |  | inconclusive [inhibitor, full curve]
COc1cccc(/C=N/NC(=O)C(=O)Nc2ccccc2OC(F)(F)C(F)F)c1 | inactive: -1.59% | 
CN(C)c1nc(N)c(C(=O)Nc2cccnc2)nc1Cl |  | inconclusive [activator, single point]
CS(=O)(=O)N1CCc2cc(S(=O)(=O)NCCNS(=O)(=O)c3ccc4c(c3)CCN4S(C)(=O)=O)ccc21 | inactive: 3.4% | 

Compound | activity, negative = inhibition | Potency
CC(/C=C1\SC(=S)N(NC(=O)c2cccc(O)c2)C1=O)=C\c1ccccc1 |  | inconclusive [inhibitor, single point]
Cc1ccc2cc(CN(Cc3nnnn3Cc3ccco3)CC3CCCO3)c(=O)[nH]c2c1C (stereo not drawn) |  | inconclusive [inhibitor, single point]
CC(C)[C@@H]1[C@H]2CC[C@H](C2)[C@H]1N | inactive: 4.3% [at 21.7 µM] | 
CCCCCCCCCCCCCCCCCCOC[C@H](COP(=O)([O-])OCC[N+](C)(C)C)OC |  | inconclusive [inhibitor, partial curve]
CCc1ccc(NC(=O)Cn2c3[n+](c4c(F)c(F)ccc42)CCCCC3)cc1 | inactive: -3.19% | 
Cn1c(=O)c2c(nc(SCCCC#N)n2Cc2ccccc2F)n(C)c1=O | inactive: 0.654% | 
CCN(C(=O)COC(=O)c1cc(-c2ccccc2)nc2c1c(C)nn2-c1ccc(C)cc1)C1CCS(=O)(=O)C1 (stereo not drawn) | inactive: 3.78% | 
CC(NC(=S)Nc1ccc(F)cc1)C(c1cccs1)N1CCOCC1 (stereo not drawn) | inactive: 12.2% | 
COc1ccc(O)c(/C=N/NC(=S)Nc2cccnc2)c1 |  | inconclusive [inhibitor, partial curve]
CCNC(=S)NNC(=S)NCc1ccccc1 |  | inconclusive [inhibitor, single point]
O=C(C1CCC(CNS(=O)(=O)c2cccc3cccnc23)CC1)N1CCc2ccccc21 (stereo not drawn) | inactive: -6.72% | 
Cc1nc(-c2ccccn2)nc(N2CCOCC2)c1Cl |  | inconclusive [inhibitor, single point]
Cc1noc(C)c1COc1ccc(C(=O)OCC(=O)N2c3ccccc3NC(=O)C2(C)C)cc1 |  | inconclusive [inhibitor, single point]
Cc1cc(C(=O)NC2CCCCC2)on1 | inactive: -3.24% | 
Cc1ccc(SCc2c(-c3ccccc3)nn(C)c2Cl)cc1 |  | inconclusive [activator, single point]
CCOc1ccc(C(=S)N2CCOCC2)cc1 | inactive: -4.95% | 
Cc1cc(C)c(NC(=S)NC(=O)c2ccc(-c3ccccc3)cc2)c(C)c1 | inactive: -3.38% | 
Cc1cccc(Cc2c(C)nc3nc(SCC(=O)O)nn3c2C)c1 |  | inconclusive [inhibitor, single point]
CC(=O)N[C@@H](CC(=O)O)C(=O)N[C@@H](CCC(=O)O)C(=O)O (Ac-Asp-Glu-OH) |  | inconclusive [inhibitor, full curve]
CCOc1ccccc1OCCCOc1ccc(C)cc1Br |  | inconclusive [activator, single point]
Cc1cccc(N=C2NC(=O)/C(=C/c3cccn3C)S2)c1C |  | inconclusive [inhibitor, partial curve]
CCOc1cc(CNCc2ccccn2)ccc1OCC(=O)NC(C)(C)C |  | inconclusive [inhibitor, single point]
O=C(O)C(C(=O)/C=C/c1ccco1)=C1SCCS1 |  | inconclusive [inhibitor, single point]
